# The campaign covered roughly 310,000 compounds. About 11,000 (3.5%) were called active. Inconclusive means that the source gave no clear call. Such entries were picked first, then a sample of the others. Calls come from the whole dose curve; as a rule, active = well fitted inhibition curve with a large enough effect; inconclusive = small, poorly fitted or top-dose-only effect, or effect the other way; inactive = flat fitted curve, though single readings scatter. Potencies of inconclusive entries are left out as doubtful fits.
# Experiment: VP16 counterscreen qHTS for inhibitors of ROR gamma transcriptional activity;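 note: Gal4-VP16 expression switched on by copper sulfate through the metallothionein promoter; nearly all actives have a fitted effect of over 50% in size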
# Conditions: Drosophila S2 Gal4-VP16 UAS-luciferase, luminescence, 20 h; activity, negative = inhibition: at 53.6 µM (top of the series)
# % is set by controls: 0 for no effect and ±100 for the full control effect; potency is the fitted concentration of half-maximal effect; tags give direction and shape of the fitted curve.
Structure (SMILES),Potency,"activity, negative = inhibition"
Cc1cc(=O)[nH]c(SCC(=O)C23CC4CC(CC(C4)C2)C3)c1C#N,"inconclusive [inhibitor, single point]",
CCCCOC(=O)CN1C(=O)c2ccc(C(=O)OCCCC)cc2C1=O,"inconclusive [inhibitor, single point]",
O=C(NC(=S)Nc1nc2c(s1)CSc1ccccc1-2)c1ccccc1,"inconclusive [inhibitor, single point]",
CCN(CC)CCCNC(=O)CCC(=O)NNc1nc2ccccc2c2nc(C)nn12,"inconclusive [inhibitor, single point]",
CC(=O)c1ccc(CC2SC(N)=NC2=O)cc1 (stereo unspecified),inactive,
O=C(NCCc1csc(-c2ccc(C(F)(F)F)cc2)n1)c1cccs1,"inconclusive [inhibitor, single point]",
O=C(N/N=C/C=C/c1ccco1)c1ccccc1Cl,inactive,
CCn1c(C)nc2cc(S(=O)(=O)N3CCCCC3)ccc21,"inconclusive [inhibitor, single point]",
COc1cc(C2C(C#N)=C(N)Oc3c2ccc2ccccc32)ccc1OCC(=O)Nc1cccc(C)c1 (stereo unspecified),"inconclusive [inhibitor, single point]",
CCCCNC(=S)Nc1cc([N+](=O)[O-])ccc1C,"inconclusive [inhibitor, single point]",
COc1cc(NC(=O)CSc2nc3ccccc3n2-c2ccccc2)c(C)cc1[N+](=O)[O-],inactive,
COc1ccc(OC)c(C2/C(=C(/O)c3cnn(-c4ccccc4)c3C)C(=O)C(=O)N2CCN(C)C)c1 (stereo unspecified),"inconclusive [inhibitor, single point]",
CCSc1nc2ccc(N3C(=O)C4C5C=CC(C5)C4C3=O)cc2s1 (stereo unspecified),inactive,
COc1ccccc1Nc1nc(N)nc(CCl)n1,"inconclusive [inhibitor, single point]",
FC(F)Sc1ccc(NC(=S)NC(c2ccccc2)c2ccccc2)cc1,"inconclusive [inhibitor, single point]",
CCN(CC)c1ccc(/C=N/NC(=O)c2cccc(S(=O)(=O)N3CCOCC3)c2)c(O)c1,active: 11.2 µM,
S=C(NCc1ccco1)Nc1ccc(Cl)cc1,"inconclusive [inhibitor, single point]",
CNC(=O)/C(C#N)=c1\s/c(=C/C(=O)OC)c(=O)n1-c1ccccc1,inactive,
CCn1c(O)c(C=NC2CCCC(C)C2C)sc1=S (stereo unspecified),"inconclusive [activator, single point]",
O=C1COc2ccc(C(=O)CSc3nnc(Cc4cccs4)n3-c3ccccc3)cc2N1,inactive,
O=C(NCCN1CCOCC1)NC1(C(F)(F)F)Oc2ccc(Cl)cc2O1 (stereo unspecified),"inconclusive [inhibitor, partial curve, poor fit]",
CCc1ccc(NC(=S)N2CCN(S(=O)(=O)c3ccccc3)CC2)cc1,"inconclusive [inhibitor, single point]",
Clc1ncnc2c1oc1ccccc12,"inconclusive [activator, full curve]",
CSc1ncccc1C(=O)Nc1nc2ccc(Oc3ccccc3)cc2s1,"inconclusive [inhibitor, single point]",

Structure (SMILES),Potency,"activity, negative = inhibition"
Cc1ccnc(NC(=O)c2cc3cc(F)ccc3s2)c1,"inconclusive [inhibitor, single point]",
Cc1c(F)cccc1NS(=O)(=O)c1ccc(OCCNS(C)(=O)=O)cc1,"inconclusive [inhibitor, single point]",
CCc1ccc2c(CN3CCc4cc(OC)c(OC)cc4C3)cc(=O)oc2c1,"inconclusive [activator, single point]",
Cn1c(CNC(=O)c2ccccc2F)nnc1SCc1nc2ccccc2c(=O)[nH]1,inactive,
O=C(NCc1ccco1)c1cnn2c(C(F)(F)F)cc(-c3cccs3)nc12,"inconclusive [inhibitor, partial curve]",
O=C(CSc1ncnc2scc(-c3ccccc3)c12)N1CCN(Cc2ccc3c(c2)OCO3)CC1,"inconclusive [inhibitor, single point]",
Cc1c(C)c2c(OCC(=O)N[C@@H](CC(C)C)C(=O)O)cc3c(c2oc1=O)CCC(C)(C)O3,inactive,
Cc1cccc(NC(=O)Nc2nnc(-c3ccccc3)o2)c1,inactive,
COc1ccc(-c2cc(NC(=O)c3cncn3-c3ccccc3)ccc2OC)cc1,inactive,
CC1CCCCN1c1nnc(NC(=O)c2cc(-c3ccc(Br)cc3)on2)s1 (stereo unspecified),"inconclusive [inhibitor, single point]",
O=C(CCCN1C(=O)/C(=C/c2ccccc2)SC1=S)Nc1ccccc1O,"inconclusive [inhibitor, partial curve]",
CCc1ccc(CNC(=O)CC2C(=O)NCCN2Cc2ccccc2F)nc1 (stereo unspecified),"inconclusive [inhibitor, single point]",
CC(C)C[C@H](NC(=O)[C@H](CC(C)C)NC(=O)[C@@H](Cc1c[nH]c2ccccc12)NC(=O)[C@H](Cc1ccccc1)NC(=O)[C@@H](Cc1c[nH]c2ccccc12)NC(=O)[C@H](CCC(N)=O)NC(=O)[C@H](CCC(N)=O)NC(=O)[C@@H]1CCCN1C(=O)[C@H](CCCCN)NC(=O)[C@@H]1CCCN1C(=O)[C@H](N)CCCN=C(N)N)C(N)=O,inactive,
O=C(Oc1c(CN2CCOCC2)cc(Cl)c2cccnc12)c1ccccc1Br,active: 3.98 µM,
O=C(NC(=S)N(Cc1ccccc1)Cc1ccccc1)c1ccccc1F,active: 0.708 µM,
COc1cnc(-c2ccccn2)nc1Sc1ccccc1Cl,active: 10 µM,
O=C(NCC1CCCO1)C1CCCN(S(=O)(=O)c2cc(Cl)ccc2Cl)C1 (stereo unspecified),inactive,
CN(C)S(=O)(=O)c1ccc(NC(=O)N2CCN(c3cccc(C(F)(F)F)c3)CC2)cc1,active: 10 µM,
COCCCn1[nH]c2c3c(ccc2c1=O)C(=O)c1ccccc1C3=O,"inconclusive [inhibitor, single point]",
CC(Oc1ccc2c(c1)c1ccnc3c4ccccc4c(=O)n2c13)C(=O)NCCN1CCOCC1 (stereo unspecified),"inconclusive [inhibitor, partial curve]",
O=C(NC(=S)Nc1ccccn1)c1cc(-c2ccccc2)nc2ccccc12,active: 0.708 µM,
Cc1ccc(NC(=S)NCC2CCCO2)c(OC(F)F)c1 (stereo unspecified),"inconclusive [inhibitor, single point]",
N#CC(C(=O)Nc1ccccc1)=C1Nc2ccccc2N1,"inconclusive [inhibitor, single point]",
COc1cccc(CNS(=O)(=O)c2ccc3c(c2)CC(C)N3C(=O)C2CCC2)c1 (stereo unspecified),"inconclusive [inhibitor, single point]",

Structure (SMILES),Potency,"activity, negative = inhibition"
Cn1ccnc1Sc1ccc(C=O)cc1[N+](=O)[O-],"inconclusive [inhibitor, single point]",
COc1ccc(/C=N/NC(=O)c2ccccc2Cl)cc1CSc1nc2ccccc2s1,inactive,
C/C(=N\NC(=O)c1ccccc1)c1cc2cc([N+](=O)[O-])ccc2oc1=O,active: 5.01 µM,
CC(=O)N(CN1C(=O)c2ccc([N+](=O)[O-])cc2C1=O)c1ccc(F)cc1,"inconclusive [inhibitor, single point]",
N#Cc1c(-c2ccccc2)c(C#N)c2nc3ccccc3n2c1N,"inconclusive [activator, single point]",
C/C=C/c1ccccc1OCc1ccc(C(=O)O)o1,inactive,
Cc1ccc2nsnc2c1NC(=O)c1ccc(-c2cc(Cl)ccc2Cl)o1,"inconclusive [inhibitor, partial curve]",
CCCC/C=C/[C@H](c1ccccc1)[C@H](CO)Cc1cccnc1,"inconclusive [inhibitor, single point]",
CCOc1ccc(NC(=O)COC(=O)c2ccc3c(c2)C(=O)N(CCc2ccccc2)C3=O)cc1,"inconclusive [inhibitor, single point]",
CCOC(=O)CSC1=NC(=O)CS1,"inconclusive [inhibitor, single point]",
CC(C)(C)c1cccc(C2(O)C(=O)c3ccccc3C2=O)c1O,active: 12.6 µM,
CSc1nc(SCC(=O)O)c2c3c(sc2n1)COC(C)(C)C3,inactive,
O=C1NC(Nc2nccs2)(C(F)(F)F)C(=O)N1CCc1ccccc1 (stereo unspecified),"inconclusive [inhibitor, single point]",
CN(Cc1cn[nH]c1-c1ccc2c(c1)OCO2)C1CCOCC1,inactive,
Cc1ccc(C(=O)N/N=C\c2cc3c(cc2Br)OCO3)s1,inactive,
CCNC(=S)Nc1ccc(C)c(Cl)c1,"inconclusive [inhibitor, single point]",
COc1ccc2c(c1)O[C@H](c1ccc3c(c1)OCO3)[C@@H](OC(=O)Nc1ccc(C)c(Br)c1)C2=O,inactive,
Cc1cc(C)c(S(=O)(=O)N2CCCOC2CNC(=O)C(=O)NCCc2c[nH]c3ccccc23)c(C)c1 (stereo unspecified),inactive,
C/C(O)=C\c1nc2ccccc2oc1=O,inactive,
N#CCCN1CCN(S(=O)(=O)c2ccc3c(c2)OCCCO3)CC1,inactive,
N/C(=N\OC(=O)c1ccc(Cl)cc1Cl)c1cccnc1,"inconclusive [inhibitor, single point]",
CCOc1ccc(-c2cc(CCCC(=O)NCCC(C)C)no2)cc1,"inconclusive [inhibitor, partial curve]",
O=C(COC(=O)c1ccccc1NS(=O)(=O)c1cc([N+](=O)[O-])ccc1Cl)c1ccccc1,,inactive: 0.0374% [at 10 µM]

# Source: PubChem BioAssay AID2546 (National Center for Advancing Translational Sciences (NCATS), 2010)
